Laboratory results reported in PubChem BioAssay (NCI).
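1) Cells in 96-well plates. 2) Compound, 48 h, 5 concentrations. 3) Linear interpolation between surrounding doses. 4) Unreached endpoint = highest concentration. Here, GI50 denotes the concentration required for 50% inhibition of growth. Definition used: TGI = concentration required for complete inhibition of growth.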

System: NCI-H322M lung
Test: NCI tumour cell line growth inhibition, 48 h

Row | Compound | GI50 [µM] | TGI [µM]
1 | O=C(c1ccc2ccccc2c1)c1nc2cc(F)ccc2[n+]([O-])c1C(F)(F)F | 17.1 | 34.4
2 | Cc1ccc2nc3n[nH]c(N)c3nc2c1 |  | > 100
3 | C/C(=N\NC(=S)N1CCC(N2CCCCC2)CC1)c1ccccn1 |  | 8.13
4 | COc1ccc(-c2cnnn2-c2nonc2-n2cccc2)cc1OC | 8.97 | > 100
5 | Nc1ccccc1C#CC(=O)c1cccc(C(F)(F)F)c1 |  | 33.9
6 | COc1ccc2c(c1)C(=O)/C(=C/c1cccc(OCC(=O)Nc3nc(C)c(C)s3)c1)O2 | 18.9 | 34.1
7 | O=C1NC(Nc2ccccc2)=N/C1=C\c1c(Cl)cccc1Cl |  | 70.9
8 | CN(C)C(=S)/N=c1\ssc(=S)n1C |  | > 100
9 | COC(=O)CCC1(CCC(=O)OC)CCCCCCC(CCC(=O)OC)(CCC(=O)OC)C(=O)C1=O |  | > 100
10 | Cc1cccc2oc3c(c(=O)c12)CC(O)C(C)(C)O3 (centres undefined) |  | > 100
11 | CCOC(=O)c1ccc(NC(=O)NC2=NCCS2)cc1 | 7.01 | > 100
12 | Cc1cc(CCl)c(C)cc1CCl | 1.63 | 3.48
13 | CC(Oc1ccc(Oc2cnc3ccc(Cl)cc3n2)cc1)C(=O)O (centres undefined) |  | > 100
14 | CCOC(=O)C1Cc2ccc3c4c(ccc(c24)C1)CC(C(=O)OCC)C3 |  | > 100
15 | CC(=O)/C=C/c1ccc(Nc2c3ccccc3nc3occ(Cl)c23)cc1 | 11.7 | 42.1
16 | O=C1C(CO)=C[C@H](O)[C@H]2O[C@@H]12 |  | 327
17 | CSc1ncnc2c1ncn2CC(=O)C1CCC2C3CCC4=CC(=O)CCC4(C)C3CCC12C (centres undefined) |  | > 100
18 | Cc1nc2ccc(S(=O)(=O)NS(=O)(=O)c3ccc(-c4ccccc4)cc3)cc2c(=O)n1NS(=O)(=O)c1ccc(-c2ccccc2)cc1 |  | > 100
19 | CCOC(=O)C(=CNc1ccc(N(C2=NCC(C)S2)c2ccc(F)c(Cl)c2)cc1)C(=O)OCC (centres undefined) |  | 67.4
20 | CCC(=O)N/S(=N/S(=O)(=O)c1ccccc1)C(Cl)(Cl)Cl (centres undefined) |  | > 100
21 | O=c1nc2ccc([N+](=O)[O-])cc2[n+]([O-])[nH]1 |  | > 100
22 | Clc1ccccc1CN1COc2c(ccc3cccnc23)C1 |  | 14.9
23 | COc1cc(/C=N/N=C(\N)NO)cc(OC)c1OC |  | > 100
24 | CCOc1cc(/C=C/C(=O)C(C(=O)/C=C/c2ccc(OC(=O)CNc3nc4ccccc4[nH]3)c(OCC)c2)C(=O)CNc2nc3ccccc3[nH]2)ccc1OC(=O)CNc1nc2ccccc2[nH]1 | 7.3 | 20.9
25 | COc1cc(F)ccc1-c1cc(Nc2cc(CS(C)(=N)=O)ccn2)ncc1F (centres undefined) | 0.0783 | > 100
26 | CCCCc1ccc(-n2sc3ncc(-c4ccccc4)cc3c2=O)cc1 |  | > 100

Row | Compound | GI50 [µM] | TGI [µM]
27 | CCSc1ccc([C@@H]2[C@@H](O)C(=O)N2c2cc(OC)c(OC)c(OC)c2)cc1 | 0.0806 | > 100
28 | Cc1ccc(/C=C2\NC(=S)NC2=O)cc1 |  | > 100
29 | COc1cccc(CNc2ncnc3c2ncn3C2OC(CO)C(O)C2O)c1O (centres undefined) | 0.136 | 
30 | CCCCCCCCCc1ccc(OCCOCCOCCOCCOCCOCCOCCOCCOCCO)cc1 | 2.08 | 7.67
31 | COc1ccc(-c2c(-c3ccccc3)c(C)c3ccccn23)cc1 |  | > 100
32 | N=c1ccc2nc3ccc(N)cc3sc-2c1 | 14.4 | > 100
33 | O=C(O)c1nc2ccc(C(F)(F)F)cc2nc1Nc1ccc(Cl)c(Cl)c1 |  | 37.7
34 | N#[N+]c1c([O-])c2ccccc2c2ccccc12 |  | > 100
35 | COc1ccc2cc(CNCCCCCCCCNCc3ccc4cc(OC)ccc4c3)ccc2c1 |  | 44.5
36 | CO/N=C\c1ccc2c(c1)Sc1ccccc1O2 |  | > 100
37 | O=c1[nH]nc(-c2ccccc2)n1/N=C/c1cccc([N+](=O)[O-])c1 |  | > 100
38 | NC(=O)CSc1c2cc(O)ccc2nc2ccc(O)cc12 |  | > 10
39 | N#CCCN(CCC#N)c1ccc(/C=C2\N=C(c3ccccc3)N(c3ccc(C(=O)O)cc3)C2=O)cc1 |  | > 100
40 | CCOP(=O)(OCC)/C(C#N)=C/c1ccccn1 |  | > 100
41 | COC(=O)c1c(CC(Cc2ccc3c(c2)CCCC3)C(=O)O)ccc2c1CCCC2 (centres undefined) |  | > 100
42 | CCCc1nc(Cl)nc(Cl)c1Cl |  | 2.97
43 | CC(C)(C)C(=O)Oc1ccc(/C=C/C(=O)c2ccc(OC(=O)C(C)(C)C)cc2)cc1 |  | > 100
44 | C=C1C(=O)O[C@H]2[C@H]1CC/C(Cn1cc(-c3ccc(N)cc3)nn1)=C\CC[C@@]1(C)O[C@@H]21 | 12.6 | 25.7
45 | CCC1=CCN(c2cc(C)ccn2)OC1c1ccccc1 (centres undefined) |  | > 100
46 | CC1(C)COC2C(N(Cc3ccccc3)Cc3ccccc3)C(=O)N21 (centres undefined) |  | > 100
47 | O=C1c2cccnc2-c2nc(-c3cccnc3)cc3c2c1nc1ccccc13 | 13 | 35.5
48 | C1=Cc2nc1c(-c1ccccc1)c1ccc([nH]1)c(-c1ccccc1)c1nc(c(-c3ccccc3)c3ccc([nH]3)c2-c2ccccc2)C=C1 |  | > 100
49 | O=[N+]([O-])C(/C(Cl)=C(\Cl)Br)=C(/Cl)SCc1ccccc1 |  | 30.5
50 | COc1ccc(/C=C2/C(=O)N(C(=O)c3ccccc3O)N=C2C)cc1 |  | > 100
51 | CC(C)(C)OC(=O)N1NC(c2ccccc2)CC1c1ccccc1 (centres undefined) |  | > 100
52 | Clc1ccc(/C=C/c2ccc3ccccc3n2)cc1 | 0.438 | > 22.5

Row | Compound | GI50 [µM] | TGI [µM]
53 | CC(=O)OC(C(=O)[O][Sn]([CH3])([CH3])[CH3])c1ccccc1 (centres undefined) | > 100 | > 100
54 | COc1cc(OC)c2sc(-c3ccc(-n4cncc4-c4ccc(OC)c(OC)c4)cc3)nc2c1 | > 100 | > 100
55 | O=C(NN1C(=O)CSC1c1cccc(Cl)c1)C(O)c1ccccc1 (centres undefined) | > 100 | > 100
56 | O=C(N/N=C\c1cccc2ccccc12)Nc1ccccc1 |  | > 100
57 | ClCc1cccc(Cn2cnc3c(Cl)nc(Cl)nc32)c1 | 2.3 | 5.07
58 | CCOc1ccc(N=C(NC(=O)c2ccccc2)SC)cc1 |  | > 100
59 | CCCCCCC(O)CC[C@H]1CCC[C@@H](C)N1 (some centres undefined) |  | > 31.6
60 | CC(O)c1cc2c(s1)C(=O)c1c(C(C)O)csc1C2=O (centres undefined) |  | 0.354
61 | FC(F)(F)c1ccc2c(c1)nc1n2C(c2c(Cl)cccc2Cl)SC1 (centres undefined) |  | 38.6
62 | O=c1[nH]nc(-c2ccccc2)n1/N=C/c1ccccc1O |  | > 100
63 | COc1cc(OCc2cccc(-c3ccccc3)c2C)cc(OC)c1CN1CCCCC1C(=O)NCCOCCOCCN (centres undefined) | 3.19 | 13
64 | COC(=O)c1cc(=O)nc2cc3cccccc3n12 |  | > 100
65 | N#CC1=C(N)N(/N=C/c2ccccc2)C(c2ccccc2)C1(C#N)C#N (centres undefined) |  | 33.1
66 | COC/N=C(\NC#N)NCOC |  | > 100
67 | N#Cc1c(=O)c2ccccc2n2ccccc12 |  | > 100
68 | N=c1c2ccccc2sc2nc3ccccc3n12 |  | > 100
69 | COc1ccc(O)c(C(=O)CCC(=O)O)c1 |  | > 100
70 | COc1cc(/C=C2\C[C@H]3[C@@H]4CCC5=CC(=O)CC[C@]5(C)[C@H]4CC[C@]3(C)C2=O)cc(OC)c1OC |  | > 100
71 | COc1cc(C(=O)N[C@H]2CCc3cc(OC)c(OC)c(OC)c3-c3ccc(SC)c(=O)cc32)cc(OC)c1OC |  | > 100
72 | O=C1CCCC/C1=C\c1ccc([N+](=O)[O-])cc1 |  | > 100
73 | C=CC(C)(C)n1cc(C2=C(O)C(=O)C(c3cn(C(C)(C)C=C)c4ccccc34)=C(O)C2=O)c2ccccc21 |  | 16.5
74 | CC(C)=NOC(=O)CNC(=O)C(Cc1ccccc1)NC(=O)C(C)NC(=O)OC(C)(C)C (centres undefined) |  | > 100
75 | Cc1ccc(S(=O)(=O)CNC(=O)C(O)(O)C(F)(F)F)cc1 |  | > 100
76 | C=C1C(=O)O[C@H]2[C@H]1CC/C(COC(=O)NCc1ccc(Cn3c(=O)sn(CCCCC)c3=O)cc1)=C\CC[C@@]1(C)O[C@@H]21 | 10.7 | 22.5
77 | CCC(C)C(N)C(=O)N/N=C\c1c2c(nc3ccccc13)-c1cc3c(c(=O)n1C2)COC(=O)[C@]3(O)CC (some centres undefined) |  | > 100
78 | C/C(=N\NC(=O)c1ccc(Cl)cc1)c1nc2ncccc2[nH]1 |  | > 100

Row | Compound | GI50 [µM] | TGI [µM]
79 | CC[C@@H](CCCCC1CC[C@H]2CC(=O)C[C@@H]12)OC (some centres undefined) |  | > 100
80 | c1ccc2c(c1)NCc1cc3ccccc3nc1O2 |  | > 100
81 | O=c1cc(-c2ccccc2)[nH]c2cc(F)cc(F)c12 |  | > 100
82 | COC(=O)C(C(=O)C(=O)Nc1ccc(C)cc1C)c1csc(-n2nc(-c3ccccc3)cc2-c2ccccc2)n1 (centres undefined) |  | > 100
83 | CCOC(=O)c1sc(-c2ccc(OS(=O)(=O)C[C@]34CCC(CC3=O)C4(C)C)c(C=O)c2)nc1C | 1.52 | > 50
84 | O=C1/C(=C\c2ccco2)Oc2ccccc21 |  | > 100
85 | COc1ccccc1-c1cc(=O)c2cc(C)c(C)c(C(=O)O)c2o1 |  | > 100
86 | O=C(Cn1cc(Br)c(=O)[nH]c1=O)c1ccc(-c2ccccc2)cc1 |  | > 100
87 | COc1ccc(/C=C(\NC(=O)c2ccccc2)c2nc3ccccc3[nH]2)cc1OC |  | > 100
88 | Clc1ccc(-c2cc(-c3cc4cc(Br)ccc4nc3Cl)on2)cc1 |  | > 50
89 | COc1c2c(nc3ccccc13)-c1cc(C(CC(=O)OC(C)(C)C)C(=O)OC(C)C)c(CO)c(=O)n1C2 (centres undefined) |  | > 100
90 | CN(Cc1ccc(F)cc1)c1ccc(CO)c(Cl)c1 | 13.8 | > 66.5
91 | c1ccc(-c2nc3n(c2-c2ccc4c(c2)OCO4)CCC3)nc1 | 4.69 | > 23.6
92 | COc1cc(C2=NN(C(C)=O)C(c3cc(OC)c(OC)c(OC)c3)C2)ccc1O (centres undefined) | 0.763 | > 100
93 | CN(C)N1C(=O)SCC(c2ccccc2)(c2ccccc2)C1=O |  | > 100
94 | CC(=O)C(C(=O)c1ccc(C)cc1)[C@H]1OC(C)(C)O[C@H]1[C@H]1COC(C)(C)O1 (some centres undefined) |  | 15.7
95 | COc1cc(C2c3cc4c(cc3OC(NNS(=O)(=O)c3ccc(C)cc3)C2C)OCO4)cc(OC)c1OC (centres undefined) |  | 39.8
96 | N#Cc1c2ccc([N+](=O)[O-])cc2c(=O)n2c1[nH]c1ccc(C(F)(F)F)cc12 |  | > 66.1
97 | N#Cc1c(Cl)c2cccnc2n2c1nc1ccccc12 |  | 25
98 | CC1=Nc2ccccc2SC(c2c(Cl)cccc2Cl)C1 (centres undefined) |  | 4.37
99 | Cc1ccc(-c2c(-c3ccccc3)[nH]c(C)c2C(=O)ONC(=O)c2ccccc2)cc1 |  | 23.5
100 | CCCCCCCCC/C=C1/CC(CO)(COC(=O)CC(C(C)C)C(C)C)OC1=O (centres undefined) |  | 25.3
101 | CCCC(=O)N[C@H]1CCc2cc(OC)c(OC)c(OC)c2-c2ccc(SC)c(=O)cc21 |  | 3.71
102 | COc1ccc(C(=O)c2sc3nc(-c4ccccc4OC)ccc3c2N)cc1OC | 44 | > 100
103 | COC1(C2c3ccccc3CCN2C(=O)OC(C)(C)C)C(=O)C(c2ccccc2)=C1N(C)C (centres undefined) |  | > 100
104 | O=C1C[C@@]23CCC4(CC2CCC[C@H]3O1)OCCO4 (some centres undefined) |  | > 100
